Assay results taken from PubChem BioAssay AID1347165 (National Center for Advancing Translational Sciences (NCATS), 2019).
The whole screen tested about 220,000 compounds, of which about 5,700 (2.6%) were called active. Inconclusive means that the source gave no clear call. Such entries were picked first, then a sample of the others. Calls follow the shape of the dose curve; as a rule, active = well fitted inhibition curve with a large enough effect; inconclusive = small, poorly fitted or top-dose-only effect; inactive = no such curve, though single readings can be large or run the other way. A potency beside an inconclusive call is a rough fit, not a confirmed value.

Target: Lysine-specific demethylase 5B (Homo sapiens) (UniProt Q9UGL1)
Assay: Primary screen for KDM5B Histone Demethylases FDH-coupled qHTS; also: nearly all actives have a fitted effect of over 70% in size; as to activity change, negative = inhibition: 0% is about no effect
Conditions: FDH-coupled NADH fluorescence (FDH is formaldehyde dehydrogenase); activity change, negative = inhibition: at 57.7 µM (top of the series) unless noted
Outline: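 qHTS format, multiple compound concentrations. Buffer 50 mM HEPES pH 7.5/0.01% Tween-20; 200 nM KDM5BΔAP final; 10 min compound preincubation; substrate-mix levels 12.5 µM peptide, 25 µM α-KG, 0.25 mM NAD⁺; 30 min RT; ΔRFU.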
Potency is read from the fitted curve at half-maximal effect; tags tell the direction and shape of the fitted curve.

Sequence of UniProt Q9UGL1 (Q9UGL1 whole entry, looked up): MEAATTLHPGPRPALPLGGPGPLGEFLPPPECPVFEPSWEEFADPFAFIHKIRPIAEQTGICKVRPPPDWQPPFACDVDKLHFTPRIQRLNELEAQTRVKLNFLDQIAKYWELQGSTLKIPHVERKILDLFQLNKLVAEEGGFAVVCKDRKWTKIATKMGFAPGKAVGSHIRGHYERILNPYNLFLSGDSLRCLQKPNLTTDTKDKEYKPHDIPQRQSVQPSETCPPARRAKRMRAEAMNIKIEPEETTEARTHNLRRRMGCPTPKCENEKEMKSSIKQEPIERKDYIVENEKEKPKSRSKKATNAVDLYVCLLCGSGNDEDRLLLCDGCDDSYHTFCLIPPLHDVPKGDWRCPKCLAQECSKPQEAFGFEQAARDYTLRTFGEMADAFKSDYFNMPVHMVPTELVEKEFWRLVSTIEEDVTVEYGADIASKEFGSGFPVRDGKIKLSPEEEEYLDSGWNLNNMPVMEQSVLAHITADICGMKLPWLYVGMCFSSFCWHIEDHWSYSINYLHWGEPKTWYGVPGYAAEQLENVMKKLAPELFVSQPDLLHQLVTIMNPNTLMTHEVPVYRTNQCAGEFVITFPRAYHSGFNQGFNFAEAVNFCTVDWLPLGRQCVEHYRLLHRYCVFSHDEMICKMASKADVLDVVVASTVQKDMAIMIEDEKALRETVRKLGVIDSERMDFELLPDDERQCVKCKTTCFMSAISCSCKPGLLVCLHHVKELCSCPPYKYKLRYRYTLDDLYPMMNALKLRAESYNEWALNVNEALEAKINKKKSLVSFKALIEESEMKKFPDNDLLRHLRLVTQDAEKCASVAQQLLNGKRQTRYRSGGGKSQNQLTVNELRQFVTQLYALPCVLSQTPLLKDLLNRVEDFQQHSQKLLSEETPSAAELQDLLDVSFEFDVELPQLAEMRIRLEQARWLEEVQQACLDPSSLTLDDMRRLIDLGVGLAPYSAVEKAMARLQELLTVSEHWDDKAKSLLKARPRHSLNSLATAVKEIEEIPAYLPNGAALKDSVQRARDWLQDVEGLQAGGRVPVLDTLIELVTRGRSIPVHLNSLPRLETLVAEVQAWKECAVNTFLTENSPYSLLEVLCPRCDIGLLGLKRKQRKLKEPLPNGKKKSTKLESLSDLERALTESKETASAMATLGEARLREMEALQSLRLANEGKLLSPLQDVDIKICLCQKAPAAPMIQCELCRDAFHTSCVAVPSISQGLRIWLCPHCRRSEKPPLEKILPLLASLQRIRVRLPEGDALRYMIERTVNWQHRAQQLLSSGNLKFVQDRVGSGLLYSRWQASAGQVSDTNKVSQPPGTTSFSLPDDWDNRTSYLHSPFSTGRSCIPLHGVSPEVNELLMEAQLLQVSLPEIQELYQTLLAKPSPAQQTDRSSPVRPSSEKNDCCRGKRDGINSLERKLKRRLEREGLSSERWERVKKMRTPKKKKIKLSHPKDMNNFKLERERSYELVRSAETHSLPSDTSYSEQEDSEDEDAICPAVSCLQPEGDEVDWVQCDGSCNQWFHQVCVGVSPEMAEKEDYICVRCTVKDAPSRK

| SMILES | Potency | activity change, negative = inhibition |
| --- | --- | --- |
| C#CCNC(=O)c1cc(-c2ccc3c(c2)OCCO3)nc2ccccc12 | inconclusive: 25.1 µM [inhibitor, partial curve, poor fit] |  |
| Cc1c(NC(=O)CN(c2cc(Cl)ccc2Cl)S(C)(=O)=O)c(=O)n(-c2ccccc2)n1C | inactive |  |
| CCc1ccc(NS(=O)(=O)c2ccc3[nH]c4c(c3c2)CCCCCC4)cc1 | inconclusive: 11.2 µM [inhibitor, partial curve, poor fit] |  |
| COc1cccc(C(=O)N2C[C@@H](CO)[C@H](c3nc(C4CC4)no3)C2)c1 | inactive |  |
| COCCCn1cnc2cccnc21 | inactive |  |
| O=C(NCCc1noc(-c2cccnc2)n1)NCc1ccccc1 | inactive |  |
| Cc1cc(NC(=O)C(C)(C)Oc2nn(CC3CC3)c3ccc(CN4CCCC4)cc23)n(C)n1 | inconclusive: 25.1 µM [inhibitor, single point] |  |
| Cc1ccc(-c2cc(C(=O)O)c3cc(Br)ccc3n2)cc1C | inconclusive: 31.6 µM [inhibitor, single point] |  |
| COc1ccc(CN2CCOc3nc(-c4ccc(O)c(F)c4)ncc3C2=O)cc1 | active: 31.6 µM |  |
| O=C(Nc1cccn2cnnc12)c1ccc(S(=O)(=O)NCCO)cc1 | active: 28.2 µM |  |
| COc1ccc2c(Sc3ccc(Cl)cc3)c(C(=O)N3CCCCC3)[nH]c2c1 | inconclusive: 25.1 µM [inhibitor, single point] |  |
| COC(=O)c1cc(NC(=O)c2ccc3c(c2)CCC3)cc(C(=O)OC)c1 | inactive |  |
| C/C(=N\NC(=O)c1cc(O)ccc1O)c1cccc(NC(=O)c2cccc(Cl)c2)c1 | inconclusive: 39.8 µM [inhibitor, single point] |  |
| COc1ccc(C=O)cc1COc1ccc(C=O)cc1 | inconclusive: 28.2 µM [inhibitor, partial curve, poor fit] |  |
| O=C(CSc1oc(-c2ccco2)nc1S(=O)(=O)c1ccc(Cl)cc1)Nc1ccc(F)cc1 | inconclusive: 15.8 µM [inhibitor, partial curve, poor fit] |  |
| Cc1cccc(NC(=O)N2CC(Oc3ccccc3-c3noc(C)n3)C2)c1 | inactive |  |
| O=C(Nc1nccs1)c1c(O)c2c([nH]c1=O)CCCC2 | inconclusive: 22.4 µM [inhibitor, partial curve, poor fit] |  |
| c1ccc(-c2nnc3ccc(SCc4ccco4)nn23)cc1 | inconclusive: 14.1 µM [inhibitor, partial curve, poor fit] |  |
| Cn1ccc2c(C(=O)NCCC(N)=O)nc(-c3ccccc3)cc21 | active: 31.6 µM |  |
| O=C(CC(Sc1ccc(Br)cc1)C(=O)O)c1ccc(F)cc1 (centres undefined) | inconclusive: 20 µM [inhibitor, partial curve, poor fit] |  |
| CC(C)(C)c1ccc(-c2nnc(-c3ccccc3NC(=O)c3ccc(F)cc3F)o2)cc1 |  | inconclusive: -34.1% [inhibitor] |
| CCOc1ccc(CC(=O)N[C@@H]2CN(c3ccncn3)C[C@H]2CN(C)C)cc1 | inactive |  |

| SMILES | Potency | activity change, negative = inhibition |
| --- | --- | --- |
| O=C(O)C[C@@H]1CCN(C(=O)COc2ccccc2)C[C@@H]1CCN1CCCCC1 | inactive |  |
| COC(=O)[C@@H]1Cc2ncn(C)c2CN1C(=O)c1ccccc1 | inconclusive: 44.7 µM [inhibitor, partial curve, poor fit] |  |
| COc1ccc(Cl)cc1NCCC(O)c1ccc(F)cc1 (centres undefined) | inactive |  |
| CC(C)c1ccc(-c2nonc2NC(=O)c2cc(=O)c3ccc(Br)cc3o2)cc1 | inactive |  |
| Cc1oc(-c2ccccc2)nc1CC(=O)NCCC(=O)N1CCCC1 | inconclusive: 39.8 µM [inhibitor, single point] |  |
| COc1ccc(CN2CCc3oc(C)c(C(=O)N4CCN(c5ncccn5)CC4)c3C2)cc1 | inconclusive: 28.2 µM [inhibitor, single point] |  |
| Cn1nccc1-c1ccc2ncn(Cc3ccccn3)c(=O)c2n1 | inconclusive: 35.5 µM [inhibitor, partial curve, poor fit] |  |
| CN(C)c1ccc(CNC(=O)c2ccc3nc(CCc4ccccc4)oc3c2)cc1 | inconclusive: 3.16 µM [inhibitor, full curve, poor fit] |  |
| c1cc(-c2cc(-c3ccc4cn[nH]c4c3)cn3cncc23)ccn1 | inactive |  |
| Cc1ccc(/C=C/c2onc(C)c2S(=O)(=O)N2CCC(C(=O)N(CCC(C)C)Cc3ccco3)CC2)cc1 | inactive |  |
| COc1cccc(C2=NS(=O)(=O)N(C)C(C(=O)N3CCN(c4ccc(F)cc4)CC3)=C2)c1 | inactive |  |
| COc1ncccc1-c1cnc2[nH]cc(CC(=O)Nc3ccccc3)c2c1 | active: 35.5 µM |  |
| CCCS(=O)(=O)N1CCCC1C(=O)NC1CCCC1 (centres undefined) | inconclusive: 39.8 µM [inhibitor, partial curve, poor fit] |  |
| CC(C)(Oc1nn(Cc2cccc(Cl)c2)c2ccccc12)C(=O)NCCCN1CCCC1=O | inactive |  |
| c1csc(-c2nc(-c3ccc4c(c3)OCCCO4)cs2)c1 | inconclusive: 39.8 µM [inhibitor, single point] |  |
| COc1ccc(-c2nc(C)c(C(=O)NCc3ccccc3OC)s2)cc1 | inconclusive: 14.1 µM [inhibitor, partial curve, poor fit] |  |
| CCOC(=O)c1ccc(NC(=O)c2c(NCc3cccc(OC)c3OC)sc3c2CCC3)cc1 | inconclusive: 31.6 µM [inhibitor, single point] |  |
| CCN1c2cc(C(=O)NCc3ccc(OC)cc3OC)ccc2C(=O)N2CCCCCC21 (centres undefined) | inconclusive: 25.1 µM [inhibitor, partial curve, poor fit] |  |
| Cc1cc(NC(=O)CSc2nccn2-c2cccc(Cl)c2)no1 | inconclusive: 39.8 µM [inhibitor, single point] |  |
| COC(=O)c1cc(NCc2ccc(-c3ccccc3)cc2)ccc1N1CCOCC1 | inconclusive: 8.91 µM [inhibitor, full curve, poor fit] |  |
| COc1ccc(-c2ccc3nnc(CNC(=O)c4ccc(C)c(C)c4)n3n2)cc1 | active: 25.1 µM |  |
| COc1cc(CN2CCN(c3ccc(C#N)cn3)CC2CCO)cc(OC)c1 (centres undefined) | inconclusive: 20 µM [inhibitor, single point] |  |
